Results: PMC4336329 (PLoS ONE, 2015)
Hit rate of the full screen: of about 310,000 compounds, about 14,000 (4.5%) showed an effect of 50% or more. The effect is printed as a negative number. Some of the results follow.

target: human ether-à-go-go-related gene (hERG) potassium channel (human, UniProt Q12809); test: primary screen, population patch clamp on CHO cells stably expressing hERG
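Also: peak tail current of the secondary pulse compared with the same well before compound.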

Chain of human ether-à-go-go-related gene (hERG) potassium channel (Q12809 whole entry, looked up): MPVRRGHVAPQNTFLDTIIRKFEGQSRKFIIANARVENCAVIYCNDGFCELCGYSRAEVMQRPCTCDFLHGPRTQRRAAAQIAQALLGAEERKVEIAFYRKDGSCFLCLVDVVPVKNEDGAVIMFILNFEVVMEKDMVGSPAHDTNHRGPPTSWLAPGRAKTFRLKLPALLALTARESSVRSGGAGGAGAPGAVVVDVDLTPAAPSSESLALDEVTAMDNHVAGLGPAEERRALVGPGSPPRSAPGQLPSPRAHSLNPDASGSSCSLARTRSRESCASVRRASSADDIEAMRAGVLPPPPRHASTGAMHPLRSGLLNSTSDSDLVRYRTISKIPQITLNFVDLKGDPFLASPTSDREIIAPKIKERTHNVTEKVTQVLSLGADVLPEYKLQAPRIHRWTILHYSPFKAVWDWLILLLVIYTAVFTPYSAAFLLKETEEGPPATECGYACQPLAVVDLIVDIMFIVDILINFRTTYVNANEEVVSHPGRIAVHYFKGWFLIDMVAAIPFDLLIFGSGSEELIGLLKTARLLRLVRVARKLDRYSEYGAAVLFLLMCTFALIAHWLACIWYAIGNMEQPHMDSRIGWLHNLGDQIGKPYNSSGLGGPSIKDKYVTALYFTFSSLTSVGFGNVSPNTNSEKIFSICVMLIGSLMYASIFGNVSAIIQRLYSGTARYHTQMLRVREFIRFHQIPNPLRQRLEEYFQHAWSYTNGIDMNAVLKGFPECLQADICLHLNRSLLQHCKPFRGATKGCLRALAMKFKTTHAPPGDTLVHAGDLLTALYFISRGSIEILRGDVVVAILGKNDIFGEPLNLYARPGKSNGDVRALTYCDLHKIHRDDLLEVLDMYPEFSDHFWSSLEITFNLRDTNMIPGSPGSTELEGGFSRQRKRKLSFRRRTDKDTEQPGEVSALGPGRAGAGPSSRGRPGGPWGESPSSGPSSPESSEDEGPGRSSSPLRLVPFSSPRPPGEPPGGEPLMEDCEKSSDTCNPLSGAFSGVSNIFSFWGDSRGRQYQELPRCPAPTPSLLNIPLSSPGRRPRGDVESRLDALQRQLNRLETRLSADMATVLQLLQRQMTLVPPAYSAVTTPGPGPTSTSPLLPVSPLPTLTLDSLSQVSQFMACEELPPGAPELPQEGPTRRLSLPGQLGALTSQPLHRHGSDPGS

| Compound | hERG current change (%, negative = inhibition) at 10uM |
| --- | --- |
| CC(=O)OC(C(=O)n1nc(C)cc1C)c1ccccc1 (stereo not shown) | 9.08% |
| CC(=O)Nc1ccc(S(=O)(=O)NCCC(=O)OCc2csc(CC(=O)Nc3ccccc3C)n2)cc1 | 10.6% |
| CCc1cccc(C)c1NC(=O)c1cccc(N(C)C)c1 | -1.96% |
| CCc1ccc(NC(=O)CNCc2ccc(OC)c(OC)c2)cc1.O=C(O)C(=O)O | -21.3% |
| Cc1ccc(NC(=O)c2cn(CCC#N)nc2-c2cccs2)c([N+](=O)[O-])c1 | -8.76% |
| O=C(NNC(=S)Nc1ccccc1)NNC(=S)Nc1ccccc1 | 25.3% |
| COc1ccc(N2C(=O)C(C)C(Cc3ccc(C)cc3)C2=O)cc1 (stereo not shown) | 12.5% |
| Fc1cccc(F)c1CN1CCN(c2ccc(Cl)cc2)CC1 | 13% |
| O=C(CSc1ccc(-c2ccc(F)cc2)nn1)N1CCCc2ccccc21 | -27.4% |
| COc1cccc(CC(Cc2nc3ccccc3[nH]2)c2nc3ccccc3[nH]2)c1 (stereo not shown) | -33% |
| CC(CNc1nc2ccc(Cl)cc2n2cnnc12)c1ccccc1 (stereo not shown) | 18.9% |
| CCC1CCCCN1C(=O)COC(=O)c1ccc(Br)o1 (stereo not shown) | 12.3% |
| O=C(/C=C/NCc1ccc(F)cc1)c1ccccc1 | -4.3% |
| COC(=O)COc1ccc(S(=O)(=O)N2CCCCCC2)cc1C | -15.9% |
| CCCCCOc1ccc(C(=O)NCC2(c3ccccc3)CCOCC2)cc1 | -24.2% |
| CCOC(=O)c1c(C)[nH]c(C)c1S(=O)(=O)N1c2ccccc2CC1C (stereo not shown) | -0.0566% |
| CCCCNc1nnc(SCC(=O)N2CCN(S(=O)(=O)c3ccc4ccccc4c3)CC2)s1 | -6.38% |
| Cc1cc(NC(=O)COC(=O)c2c(Cl)cccc2Cl)no1 | -7.86% |
| CCOc1ccc(N(CC(=O)Nc2cccc(Cl)c2)S(=O)(=O)c2c(C)noc2C)cc1 | 3.11% |
| Cc1onc(-c2ccccc2)c1C(=O)Nc1sccc1C#N | 7.27% |
| CCOC(=O)NS(=O)(=O)c1ccc(CCNC(=O)c2cc(C)on2)cc1 | -3.31% |
| O=C(O)C(=O)O.Oc1ccc(Cl)cc1CNCC1CCCO1 (stereo not shown) | -10.9% |

| Compound | hERG current change (%, negative = inhibition) at 10uM |
| --- | --- |
| CC1CCN(CCC(=O)N/N=C/c2ccc([N+](=O)[O-])cc2)CC1 | -70% |
| CC(C)Cc1nnc(NC(=O)CCc2ccccc2)s1 | 7.49% |
| O=C(NC1=NCCS1)C1CC2CCC1C2 (stereo not shown) | 2.05% |
| CC(OC(=O)c1ccc(-c2ccc([N+](=O)[O-])cc2)o1)C(=O)NC(N)=O (stereo not shown) | -13.4% |
| Cc1cccc(C(=O)Nc2ccccc2C(=O)NCc2cccnc2)c1 | -11.6% |
| CCOc1ccc(NC(=O)Nc2cc(-c3ccccc3)sc2C(=O)OC)cc1 | -4.41% |
| Cc1c(-c2ccccc2)[n+](=O)c2c(n1[O-])CCCC2 | 11.9% |
| Oc1ccc(CNc2ccccc2O)cc1 | -4.59% |
| CC(=O)Nc1cccc(C(=O)NC2CCCc3c2cnn3-c2cc(C)cc(C)c2)c1 (stereo not shown) | -0.832% |
| Nc1nnn(Cc2ccccc2)n1 | 15.5% |
| COc1ccc(CCNC(=O)CCc2ccc(S(=O)(=O)NCC(C)C)cc2)cc1 | 1.13% |
| Cc1cc(C)c(C#N)c(SCC(=O)Nc2nnc(-c3ccccc3)s2)n1 | 12.2% |
| O=C(c1cc(-c2ccccc2O)on1)N1CCc2ccccc2C1 | 9.31% |
| CCN(CC)S(=O)(=O)c1ccc(S(=O)(=O)N2CCN(C(=O)c3ccco3)CC2)cc1 | 4.56% |
| Cc1nnc(NC(=O)COc2ccc3c(C)cc(=O)oc3c2)s1 | -3.8% |
| CCN(CC)CCNC(=O)CCn1nc(-c2ccc(Cl)cc2)ccc1=O | -34.4% |
| Br.O=C(CN1C2=NCCN2c2ccccc21)c1cccs1 | -31.3% |
| Cc1nc2cc(C(=O)OCC(=O)NC34CC5CC(CC(C5)C3)C4)ccc2n1-c1ccccc1 | 16.1% |
| O=c1[nH]c(=S)[nH]c(O)c1/C=N/N1CCOCC1 | 10% |
| O=c1cc(CSCc2ccc(Cl)cc2)[nH]c(=O)[nH]1 | 0.409% |
| Cc1ccccc1Nc1nnc(SCC(=O)c2cc3ccccc3o2)s1 | -4.7% |
| O=C(NCCCN1CCOCC1)c1ccc2c(=O)n(Cc3ccc(Cl)cc3)c(=S)[nH]c2c1 | 0.616% |

| Compound | hERG current change (%, negative = inhibition) at 10uM |
| --- | --- |
| CCCCc1nc(Cl)c(CO)n1Cc1ccc(-c2ccccc2-c2nnn[n-]2)cc1.[K+] | 1.71% |
| COc1cccc(C(=O)NCCS(=O)(=O)NCc2ccc(Cl)cc2)c1 | -36.5% |
| COc1cc(/C=C(\C#N)C(=O)NCCc2ccccc2)cc(OC)c1O | 2.82% |
| COc1ccc(S(=O)(=O)Nc2ccccc2C(=O)NCc2ccco2)cc1 | -16.1% |
| CCc1nnc(NC(=O)C2CCCN2C(=O)Nc2ccc(Cl)cc2)s1 (stereo not shown) | 1.86% |
| Cc1nnc(NC(=O)Nc2ccc(Cl)c(Cl)c2)s1 | 23.8% |
| O=C(Nc1ccccc1)N1CCN(c2nc3ccccc3s2)CC1 | -49.4% |
| S=C(NCCCc1ccccc1)Nc1ccc(Br)cc1 | 17.9% |
| O=C(Nc1ccc2c(c1)N(S(=O)(=O)c1cccs1)CCC2)c1c(F)cccc1Cl | 4.79% |
| COc1ccc(N2C(=O)CC(Sc3nnnn3-c3ccc(F)cc3)C2=O)cc1 (stereo not shown) | 8.85% |
| COc1ccc(NC(=O)C2CCC(CNc3c(N4CCC(C)CC4)c(=O)c3=O)CC2)cc1OC (stereo not shown) | 24.1% |
| Cc1c(C(=O)N/N=C/c2cccs2)nc2ccccn12 | 9.94% |
| CCOc1cc(C)c(Cl)cc1S(=O)(=O)NCc1ccc2c(c1)OCO2 | -13.9% |
| CCCNc1sc(S(=O)(=O)CCC)nc1S(=O)(=O)c1ccc(C)cc1 | -42.8% |
| CCOc1ccc(CNS(=O)(=O)c2cc(-c3cc(C)no3)ccc2OC)cc1OC | -5.07% |
| Clc1ccc2nc(C3CCN(Cc4nnnn4C4CCCCC4)CC3)[nH]c2c1 | -59.2% |
| COc1cc(NC(=O)c2ccc(F)cc2)ccc1NC(=O)c1cc2ccccc2o1 | 17.9% |
| O=C(N/N=C/c1cccs1)c1cc(-c2cccc3ccccc23)n[nH]1 | 2.99% |
| Cc1nn(-c2ccccc2)nc1CNS(C)(=O)=O | -1.64% |
| Cc1nc(SCC(=O)NCc2ccccc2)c2oc3ccccc3c2n1 | -12.4% |
| COc1ccc2c(=O)c(N3C(=O)c4ccccc4C3=O)coc2c1 | -0.536% |
| O=C(c1ccccc1)C(Nc1ccccn1)c1ccccc1 (stereo not shown) | 1.36% |

| Compound | hERG current change (%, negative = inhibition) at 10uM |
| --- | --- |
| CCCCOc1ccc(NC(=O)C2CC=CCC2C(=O)O)cc1 (stereo not shown) | 13.6% |
| O=C(O)CC(c1cccc([N+](=O)[O-])c1)N1Cc2ccccc2C1=O (stereo not shown) | 9.14% |
| CC(C)CC(=O)Nc1ccc(-c2nnn(CC(=O)NCc3ccco3)n2)cc1 | 9.87% |
| O=C(COc1ccc2c(-c3ccccc3)cc(=O)oc2c1)NCCCN1CCOCC1 | -8.67% |
| S=C(NC1CCCCC1)NN(c1ccccc1)c1ccccc1 | -2.47% |
| CCCCN(CC)CCNC(=O)CCNC(=O)Cn1ccc2ccccc2c1=O | 9.02% |
| COc1ccc(OC)c(S(=O)(=O)Nc2cccc3c(O)cccc23)c1 | -2.03% |
| CCOC(=O)C1=C(C)N=c2s/c(=C\c3ccc(OC(C)=O)cc3)c(=O)n2C1/C=C/c1ccccc1 (stereo not shown) | 6.85% |
| CCOC(=O)c1c(NC(C)=O)sc2c(OC)c(Br)ccc12 | 2.16% |
| O=C(Cc1cccs1)N1CCCC(c2nc(-c3ccc(S(=O)(=O)N4CCCC4)cc3)no2)C1 (stereo not shown) | -13.3% |
| O=C1OCCC1Sc1nnc(-c2cccs2)n1Cc1ccccc1 (stereo not shown) | -29.5% |
| CCCNC(=O)c1cc(-c2ccc(OC)cc2)n(CCCOC)c1C | 10.1% |
| CCCCc1nnc(NC(=O)CCS(=O)(=O)c2ccc(Cl)cc2)s1 | -28.7% |
| Cc1ccc(SC(c2ccccc2)C(Cn2cncn2)C(=O)c2ccccc2)cc1 (stereo not shown) | 18.9% |
| Cc1c(Cl)cnc(NC(=O)CSc2nnc(C)n2Cc2ccccc2)c1Cl | -24.1% |
| Fc1ccc(-c2csc3ncnc(N4CCN(Cc5ccccc5)CC4)c23)cc1 | -2.14% |
| CC(=O)Nc1ccc(NC(=O)c2cccc3ccccc23)cc1 | 6.36% |
| c1ccc(N2CCN(Cc3ccc4c(c3)OCO4)CC2)nc1 | -8.79% |
| O=C(CSc1nnc(CNC(=O)c2ccccc2F)o1)Nc1ccc2c(c1)OCCO2 | 12.3% |
| CCC(NC(=S)NCc1ccc(F)cc1)c1ccccc1 (stereo not shown) | -1.64% |
| Cc1ccc(NC(=O)CCNS(=O)(=O)c2ccccc2F)cc1S(=O)(=O)N1CCOCC1 | -10.6% |
| COc1cc(/C=C2\C(=N)N3N=C(S(C)(=O)=O)SC3=NC2=O)ccc1OC(=O)c1cccs1 | 0.921% |
